This is an account of results in the antibiotic and cytotoxicity screens of Wong et al. (2023).

The other results are listed elsewhere or left out.

One assay concerns HSkMC. The experiment in a line: cytotoxicity call (relative viability < 0.9). The settings on record: 10 µM.
Another assay has as its system S. aureus RN4220. The experiment in a line: growth inhibition call (relative growth <= 0.2). As to conditions: 50 µM.

As to `CC(=O)c1cc2c(cc1O)OC(C)(C)C=C2`, the cytotoxicity call with HSkMC was “inactive”. Moreover, the growth inhibition call in the assay with S. aureus RN4220 was “inactive”.
For the compound `COc1cccc(S(=O)(=O)Nc2ccc3c(c2)[C@H]2C[C@H](CC(=O)NCc4ccccc4F)O[C@@H](CO)[C@H]2O3)c1`, the cytotoxicity call in the assay on HSkMC is “inactive”. Besides, the growth inhibition call with S. aureus RN4220 was “inactive”.
For the compound `CC1(C)NC(=O)N(c2ccc([N+](=O)[O-])c(C(F)(F)F)c2)C1=O`, the cytotoxicity call in the assay on HSkMC was “inactive”. For the same compound, the growth inhibition call with S. aureus RN4220 is “inactive”.
`COCCOC(=O)N1C(=O)[C@@]2(c3ccccc31)[C@H](C(=O)N1CCCCCCC1)[C@H]1C(=O)O[C@H](c3ccccc3)[C@H](c3ccccc3)N1[C@@H]2c1ccc(OCCO)cc1`: the cytotoxicity call with HSkMC is “inactive”. In addition, the growth inhibition call with S. aureus RN4220 is “inactive”.
With `COc1ccc(S(=O)(=O)N(C)C[C@H]2OCCCC[C@@H](C)Oc3ccc(NC(=O)C4CCCCC4)cc3C(=O)N([C@H](C)CO)C[C@H]2C)cc1`, in the assay on HSkMC, the cytotoxicity call is “inactive”. The growth inhibition call in the assay on S. aureus RN4220 was “inactive”.
Take `CC(C)(C)Nc1nc(=O)[nH]c(=O)[nH]1`: the cytotoxicity call with HSkMC was “inactive”. Also, the growth inhibition call in the assay on S. aureus RN4220 was “inactive”.
As for `C[C@H](CO)N1C[C@H](C)[C@H](CN(C)Cc2ccc(C(F)(F)F)cc2)OCCCC[C@H](C)Oc2ccc(N(C)C)cc2C1=O`, the cytotoxicity call in the assay with HSkMC is “inactive”. The growth inhibition call in the assay on S. aureus RN4220 is “inactive”.
Take `COc1ccc(NC(=O)N(C)C[C@H]2Oc3c(NC(=O)c4cnccn4)cccc3C(=O)N([C@H](C)CO)C[C@H]2C)cc1`: the cytotoxicity call in the assay on HSkMC is “inactive”. Also, the growth inhibition call in the assay with S. aureus RN4220 was “inactive”.
As for `CCCN1C[C@H](C)[C@@H](OC)CN(C)C(=O)c2cc(NS(=O)(=O)c3cn(C)cn3)ccc2OC[C@H]1C`, the cytotoxicity call in the assay on HSkMC was “inactive”. In addition, the growth inhibition call in the assay with S. aureus RN4220 was “inactive”.
Take `C[C@H](CO)N1C[C@H](C)[C@H](CN(C)S(=O)(=O)c2ccc(Cl)cc2)Oc2ccc(NC(=O)Cn3cnnn3)cc2CC1=O`: the cytotoxicity call in the assay with HSkMC is “inactive”. Also, in the assay with S. aureus RN4220, the growth inhibition call was “inactive”.
In the case of `C[C@H]1CN([C@@H](C)CO)C(=O)Cc2cc(NC(=O)CCCCCC(=O)Nc3ccccc3N)ccc2O[C@@H]1CN(C)Cc1ccc(C(F)(F)F)cc1`, the cytotoxicity call in the assay on HSkMC was “inactive”. Besides, the growth inhibition call in the assay with S. aureus RN4220 is “inactive”.
Consider `COc1ccc(NC(=O)N(C)C[C@H]2OCCCC[C@H](C)Oc3ccc(NC(=O)C4CCCCC4)cc3C(=O)N([C@@H](C)CO)C[C@@H]2C)cc1`, for which, in the assay on HSkMC, the cytotoxicity call is “inactive”. In addition, the growth inhibition call in the assay with S. aureus RN4220 was “inactive”.
`COc1ccc(S(=O)(=O)Nc2ccc3c(c2)C(=O)N([C@@H](C)CO)C[C@H](C)[C@@H](CN(C)S(=O)(=O)c2ccc(Cl)cc2)OCCCC[C@@H](C)O3)cc1`: the cytotoxicity call with HSkMC was “inactive”. For the same compound, in the assay with S. aureus RN4220, the growth inhibition call is “inactive”.
With `C[C@@H]1CN([C@@H](C)CO)C(=O)c2cc(C#Cc3cccc(F)c3)cnc2O[C@H]1CN(C)CC1CCOCC1`, the cytotoxicity call in the assay with HSkMC is “inactive”. The growth inhibition call in the assay on S. aureus RN4220 is “inactive”.
For the compound `COc1ccc(NC(=O)N(C)C[C@@H]2OCCCC[C@@H](C)Oc3ccc(NS(=O)(=O)c4ccc(C)cc4)cc3C(=O)N([C@H](C)CO)C[C@@H]2C)cc1`, in the assay with HSkMC, the cytotoxicity call was “inactive”. The growth inhibition call in the assay on S. aureus RN4220 was “inactive”.
Turning to `C[C@@]1(NC(=O)Cc2ccc(S(=O)(=O)N3CCOCC3)s2)CCS(=O)(=O)C1`, the cytotoxicity call in the assay on HSkMC is “inactive”. Further, the growth inhibition call with S. aureus RN4220 is “inactive”.
For the compound `Cc1ccc(-c2ccc3c(c2)O[C@H](CN(C)C(=O)NC(C)C)[C@H](C)CN([C@@H](C)CO)S3(=O)=O)cc1`, in the assay with HSkMC, the cytotoxicity call was “inactive”. Besides, the growth inhibition call in the assay on S. aureus RN4220 is “inactive”.
On to `O=C(N[C@H](c1ccc(Cl)cc1)c1ccccn1)C1CCN(CCOc2ccc(Cl)cc2Cl)CC1`, for which the cytotoxicity call in the assay with HSkMC was “inactive”. For the same compound, in the assay on S. aureus RN4220, the growth inhibition call was “active”.
The like results for `C[C@H](CO)N1C[C@H](C)[C@@H](CN(C)S(C)(=O)=O)Oc2ccc(NC(=O)Cn3cnnn3)cc2C1=O` were, in that order, “inactive” and “inactive”.
In the same order, the values of `CC(C)(C)OC(=O)C[C@@H]1CC=CC[C@H](CC(=O)N[C@@H](CO)Cc2ccccc2)C(=O)N2CCC[C@@H]2COC1=O` are “inactive” and “inactive”.
The like results for `O=C(O)CCN1CCCC1=O` were, in that order, “inactive” and “inactive”.
Consider `O=C(C[C@H]1CC[C@@H]2[C@H](COC[C@H](O)CN2Cc2cccc(C(F)(F)F)c2)O1)NCCc1ccncc1`, for which the cytotoxicity call in the assay with HSkMC was “inactive”. Moreover, the growth inhibition call with S. aureus RN4220 was “inactive”.
As for `CCS(=O)(=O)N1C[C@]2(CN(Cc3cc(ccc3F)F)C2)c2c(n(c3cc(ccc23)OC)C)[C@H]1CO`, the cytotoxicity call in the assay on HSkMC is “inactive”. In addition, in the assay with S. aureus RN4220, the growth inhibition call is “inactive”.
Consider `COc1ccc(NC(=O)Nc2ccc3c(c2)C(=O)N([C@H](C)CO)C[C@H](C)[C@H](CN(C)Cc2ccc(C(F)(F)F)cc2)OCCCC[C@H](C)O3)cc1`, for which, in the assay with HSkMC, the cytotoxicity call was “inactive”. For the same compound, in the assay with S. aureus RN4220, the growth inhibition call was “inactive”.
As for `C[C@@H]1CN([C@H](C)CO)C(=O)c2cc(NC(=O)CCC(F)(F)F)ccc2O[C@@H](C)CCCCO[C@@H]1CN(C)S(=O)(=O)c1ccc(Cl)cc1`, the cytotoxicity call in the assay with HSkMC was “inactive”. Further, the growth inhibition call with S. aureus RN4220 is “inactive”.
As to `Cc1c(C)n2c3c(=O)n(C)c(=O)n(C)c3nc2n1CCN1CCOCC1`, the cytotoxicity call in the assay with HSkMC is “inactive”. The growth inhibition call with S. aureus RN4220 was “inactive”.
For `CCCNC(=O)C[C@@H]1CC[C@H]2[C@@H](COC[C@@H](O)CN2S(=O)(=O)c2ccc(Oc3ccccc3)cc2)O1`, the cytotoxicity call in the assay with HSkMC is “inactive”. Also, in the assay on S. aureus RN4220, the growth inhibition call was “inactive”.
Regarding `Cc1noc(C)c1NC(=O)Nc1ccc2c(c1)CC(=O)N([C@@H](C)CO)C[C@H](C)[C@@H](CN(C)Cc1ccc(C(=O)Nc3ccccc3N)cc1)O2`, the cytotoxicity call in the assay with HSkMC is “inactive”. For the same compound, in the assay with S. aureus RN4220, the growth inhibition call is “inactive”.
As for `C[C@H](CO)N1C[C@H](C)[C@H](CN(C)C(=O)Nc2cccc3ccccc23)Oc2ccc(NS(=O)(=O)c3ccccc3)cc2C1=O`, the cytotoxicity call in the assay on HSkMC (human skeletal muscle cells) was “inactive”. For the same compound, in the assay on S. aureus RN4220, the growth inhibition call is “inactive”.
